Among all 280,000 compounds or so, about 1,100 (0.39%) were called active. Inconclusive results, whose numbers are uncertain, are shown with a selection of clear calls. Calls follow the shape of the dose curve; as a rule, active = well fitted inhibition curve with a large enough effect; inconclusive = small, poorly fitted or top-dose-only effect, or effect the other way; inactive = flat fitted curve, though single readings scatter. Potencies beside an inconclusive call are fits to weak or partial responses and may not hold up.
These molecules were tested against Microtubule-associated protein tau (Homo sapiens) (UniProt P10636) (assay: qHTS for Inhibitors of Tau Fibril Formation, Fluorescence Polarization). Conditions: K18 P301L tau heparin fibrillization, Alexa594 FP, 6 h; series mostly up to 57.7 µM; activity, negative = inhibition: at the top concentration.
Method in brief: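 FP of Alexa 594-tau after heparin (20 uM) induction. Substrate: human K18 P301L, 15 uM unlabeled, 0.24 uM labeled. Buffer 100 mM sodium acetate pH 7. 6 hr, 37 C.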
% is scaled to controls: 0 for no effect and ±100 for the full control effect; potency is read from the fitted curve at half-maximal effect; tags tell the direction and shape of the fitted curve.
Also: nearly all actives have a fitted effect of over 55% in size.

Chain of UniProt P10636 (P10636 whole entry, looked up): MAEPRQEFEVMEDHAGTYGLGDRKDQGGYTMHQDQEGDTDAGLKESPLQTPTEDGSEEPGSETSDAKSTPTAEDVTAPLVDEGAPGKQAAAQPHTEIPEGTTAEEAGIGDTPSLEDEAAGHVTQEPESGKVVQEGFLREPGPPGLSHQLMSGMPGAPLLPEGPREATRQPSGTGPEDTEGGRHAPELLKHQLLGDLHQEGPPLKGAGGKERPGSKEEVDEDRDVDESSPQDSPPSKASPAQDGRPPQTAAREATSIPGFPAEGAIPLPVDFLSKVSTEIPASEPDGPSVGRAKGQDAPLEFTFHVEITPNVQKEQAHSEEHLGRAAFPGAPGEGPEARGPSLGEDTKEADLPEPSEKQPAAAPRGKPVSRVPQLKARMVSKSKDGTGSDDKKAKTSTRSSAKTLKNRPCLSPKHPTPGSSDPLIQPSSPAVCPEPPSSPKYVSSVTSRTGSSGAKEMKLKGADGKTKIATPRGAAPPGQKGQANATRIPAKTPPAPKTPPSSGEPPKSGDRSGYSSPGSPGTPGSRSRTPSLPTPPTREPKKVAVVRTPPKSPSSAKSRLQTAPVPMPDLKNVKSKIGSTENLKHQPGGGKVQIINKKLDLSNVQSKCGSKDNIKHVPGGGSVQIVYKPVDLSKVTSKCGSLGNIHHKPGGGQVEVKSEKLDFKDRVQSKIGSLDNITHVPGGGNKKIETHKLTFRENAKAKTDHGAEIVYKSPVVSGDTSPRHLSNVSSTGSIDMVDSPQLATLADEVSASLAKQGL

Potency, inconclusive:
Cn1c(CC(=O)Nc2ccccc2)nnc1SCC(=O)c1ccccc1 39.8 µM [inhibitor, single point]
Fc1ccc(N/N=C/c2ccc(N3CCOCC3)cc2)c(F)c1 1.58 µM [activator, full curve, poor fit]
COc1ccc(OC)c(CNC(=O)Cn2ncc3c([nH]c4ccc(C)cc43)c2=O)c1 39.8 µM [inhibitor, single point]
COc1ccc(C2CC(=O)N3CN(c4ccc(C)c(Cl)c4)CSC3=C2C#N)cc1 (centres undefined) 28.2 µM [inhibitor, single point]
O=C(N/N=C/c1c[nH]c2ccc(Br)cc12)c1ccc2c(c1)OCO2 8.91 µM [activator, partial curve]
Cc1cc(C)c(NC(=O)CSc2nc3ccccc3c3nc(CCn4cncc4C)nn23)c(C)c1 2.82 µM [inhibitor, single point]
O=S(=O)(c1ccc(Cl)cc1)c1nc(-c2ccccc2Br)oc1NCc1ccccc1 15.8 µM [inhibitor, partial curve]
CCc1ccc(S(=O)(=O)Nc2ccc(O)c3c(=O)cc(-c4ccccc4Cl)oc23)cc1 8.91 µM [inhibitor, partial curve]
COC(=O)c1c(SC)nc2ccccc2c1OCc1ccc(Br)cc1 11.2 µM [inhibitor, partial curve]
COc1cc(OC)cc(C(=O)Nc2cc(-c3nc4ccccc4[nH]3)ccc2C)c1 15.8 µM [inhibitor, partial curve]
O=c1c2c(nc3cc(-c4ccccc4Cl)[nH]n13)CCS2 0.0251 µM [inhibitor, full curve, poor fit]
Cc1cc(C)c(C)c(OCCCCn2cnc3ccccc3c2=O)c1 7.94 µM [inhibitor, single point]
CC1Cc2ccccc2N1CC(=O)Nc1ccc2c(c1)OC(F)(F)O2 (centres undefined) 11.2 µM [activator, single point]
O=S(=O)(c1ccc(Cl)cc1)c1nc(-c2cccc(Br)c2)oc1NCc1ccccc1 14.1 µM [inhibitor, partial curve]
Oc1ccc(NCc2cccc(OCc3ccc(F)cc3)c2)cc1 39.8 µM [inhibitor, single point]
CCOC(=O)c1c(NC(=O)/C=C/C(=O)O)sc(C)c1-c1ccc(C(C)(C)C)cc1 39.8 µM [inhibitor, single point]
O=C1C=C(Nc2ccc(O)cc2)C(=O)c2ccccc21 39.8 µM [inhibitor, single point]
CO[C@H]1COC(=O)[C@@H](OCc2ccccc2)/C=C\[C@H](C)[C@@H](OC)COC(=O)[C@H](OCc2ccccc2)/C=C\[C@@H]1C 1.26 µM [inhibitor, partial curve]
CCOc1ccccc1NC(=O)C1CCN(S(=O)(=O)c2ccc3[nH]c(=O)ccc3c2)CC1 8.91 µM [inhibitor, single point]
COC(=O)Nc1ccc(S(=O)(=O)N2CCC(Cc3ccccc3)CC2)cc1 39.8 µM [inhibitor, single point]
COc1ccc(-c2cc(C(=O)N3CCOCC3)no2)cc1OC 44.7 µM [inhibitor, single point]
O=C(N/N=C\c1ccc(-c2ccccc2[N+](=O)[O-])o1)C1COc2ccccc2O1 (centres undefined) 25.1 µM [inhibitor, partial curve]
CCCn1c(SCC(=O)Nc2cccc(C)n2)nnc1C(C)C 31.6 µM [inhibitor, single point]
CN(C)c1ccc(NC(=O)c2ccc(COc3cccc(Cl)c3)o2)cc1 31.6 µM [activator, partial curve, poor fit]
O=C(/C=C/c1cccc([N+](=O)[O-])c1)c1ccc2c(c1)OCCO2 12.6 µM [activator, partial curve]
CCC(C)NC(=O)c1ccccc1NC(=O)c1ccc(CSc2ccccc2)cc1 (centres undefined) 0.0794 µM [inhibitor, full curve, poor fit]
CO/N=C\C[C@@H]1C=C[C@H](OC(C)=O)[C@H](COC(C)=O)O1 1.41 µM [inhibitor, partial curve]
CC1(C)CC(=O)/C(=N/Nc2ccc(Cl)cc2)CO1 0.112 µM [inhibitor, full curve, poor fit]
Cc1cc(C)cc(NS(=O)(=O)c2ccc3[nH]cc(C(=O)NCCc4ccccc4)c(=O)c3c2)c1 2 µM [inhibitor, full curve]
Cc1ccc(C2C3CSCC=C3C(C#N)=C(N)C2(C#N)C#N)cc1 (centres undefined) 39.8 µM [inhibitor, single point]
CCCCNC(=O)CCC(=O)Nc1ccc2nc(N3CCCCC3)cc(C)c2c1 0.708 µM [activator, full curve, poor fit]
FC(F)Sc1ccc(NC(=S)NC(c2ccccc2)c2ccccc2)cc1 22.4 µM [inhibitor, partial curve]
CCc1nc(C)cn1S(=O)(=O)c1ccc(Cl)c(Cl)c1Cl 35.5 µM [inhibitor, single point]
O=C(Cc1cccs1)Nc1nc(-c2ccccc2)cs1 44.7 µM [inhibitor, single point]
O=c1ccc2cc3c([nH]c4ccc(Br)cc43)oc-2c1O 35.5 µM [inhibitor, single point]
O=C(N/N=C/C=C/c1ccco1)c1ccccc1Cl 35.5 µM [inhibitor, partial curve]
N#CC1=C(S)N(c2ccc(F)cc2)C(c2cccs2)NC1=O (centres undefined) 28.2 µM [inhibitor, single point]
CSc1ncccc1C(=O)Nc1nc2ccc(Oc3ccccc3)cc2s1 7.94 µM [inhibitor, partial curve]
CCOc1ccc(C(=O)NCCSc2c(C)[nH]c3ccccc23)cc1OCC 31.6 µM [activator, single point]
Nc1nc(Nc2ccccc2)nc(NCc2ccco2)c1[N+](=O)[O-] 11.2 µM [inhibitor, partial curve]
CCN(CC)c1ccc(/C=N/NC(=O)c2cccc(S(=O)(=O)N3CCOCC3)c2)c(O)c1 7.94 µM [activator, partial curve, poor fit]
Cc1cc(C)c(NC(=O)Cn2c(=O)n(Cc3ccc(C(=O)NCc4ccc5c(c4)OCO5)cc3)c(=O)c3ccccc32)c(C)c1 20 µM [inhibitor, single point]
O=C(NCc1ccco1)c1cnn2c(C(F)(F)F)cc(-c3cccs3)nc12 15.8 µM [inhibitor, partial curve]
O=C(NCC1COCCO1)C1CCN(S(=O)(=O)c2ccccc2)CC1 (centres undefined) 8.91 µM [inhibitor, single point]
Cc1ccc(CNC(=O)c2ccc(N3CCCC3)c(NC(=O)Nc3ccc(F)c(Cl)c3)c2)cc1 14.1 µM [activator, partial curve]
CCc1ccc2c(CN3CCc4cc(OC)c(OC)cc4C3)cc(=O)oc2c1 3.16 µM [inhibitor, single point]
CN(C)S(=O)(=O)c1ccc(NC(=O)N2CCN(c3cccc(C(F)(F)F)c3)CC2)cc1 10 µM [inhibitor, partial curve, poor fit]
Cc1ccc(C(=O)COC(=O)c2cc(-c3cccs3)nc3ccccc23)cc1 10 µM [inhibitor, partial curve]

Potency, active:
Cc1ccc(S(=O)(=O)Nc2ccc(NC(=O)Nc3cccc(C(F)(F)F)c3)cc2)cc1 12.6 µM
Cc1ccc(N2C(=O)C(Cl)=C(N3CCOCC3)C2=O)cc1Cl 22.4 µM

Potency, inactive:
C=C(CC)C(=O)c1ccc(OCC(=O)O)c(Cl)c1Cl

activity, negative = inhibition, inactive:
Cc1cc(C(=O)CSc2nc3ccccc3c(=O)[nH]2)c(C)n1C -11.7%
Cc1ccc(Cc2ccc(C(=O)NNC(N)=S)o2)cc1 -2.42%
CSc1nsc(SC)c1C(=O)NCCNS(=O)(=O)c1ccc(C)cc1 -1.62%
Cc1sc2nc(CSc3ccc([N+](=O)[O-])c(C(F)(F)F)c3)[nH]c(=O)c2c1C 1.35%
CCC(=O)N/C(N)=N/c1nc(C)c2cc(C)c(C)cc2n1 5.36%
CCOc1cccc(CC(=O)N2CCc3c([nH]c4ccc(OC)cc34)C2c2ccc(F)cc2)c1OCC (centres undefined) -0.512%
CC(C)C(=O)Nc1ncc(C(F)(F)F)cc1Cl -1.79%
COc1cccc(-n2c(SCc3ccc(F)cc3)nc3c([nH]c4ccccc43)c2=O)c1 -5.53%
Cc1ccc2c(c1)-c1c(c(C(=O)N3CCN(c4cc(C)ccc4C)CC3)nn1C)CS2 -0.635%
COc1cccc(CNC(=O)CN2C(=O)COc3ccc(S(=O)(=O)N4CCOCC4)cc32)c1 -1%
Cc1ccc(Cl)cc1NC(=S)N(CCN(C)C)C(C)c1ccccn1 (centres undefined) 0.259%
Cn1c(=O)c2c(nc(CN3CCN(C(=O)c4ccco4)CC3)n2Cc2ccc(Cl)cc2)n(C)c1=O 2.32%
Cc1ccc(S(=O)(=O)c2cn(CC(=O)Nc3ccc(F)cc3)c3cc4c(cc3c2=O)OCO4)cc1 -16.6%
